In all, about 71,000 compounds went through this assay and about 1,800 (2.5%) were called active. The inconclusive results got no clear call from the source; some entries with a clear call stand among them for comparison. The call rests on the fitted dose curve; in most records, active means well fitted activation curve with a large enough effect in the signal ratio, with a control signal flat (not every such curve was filed as active); inconclusive means small, poorly fitted or top-dose-only effect, or effect the other way, or a change in a side signal; inactive means flat fitted curve, though single readings scatter; the % refers to the signal ratio. Where the call is inconclusive, the potency comes from a doubtful curve fit.
Experiment: Cell signaling CRE-BLA (Fsk stim); on activity change, negative = inhibition: % of control where 0% means no effect
Conditions: CHO CRE-bla reporter (cAMP response element driving beta-lactamase), forskolin EC10, beta-lactamase ratio; activity change, negative = inhibition: at 38.2 µM (top of the series) unless noted
Method in brief: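 qHTS titration format; CRE-bla CHO reporter; stimulus EC10 NKH 477, a water-soluble forskolin. Read: CCF4 460/530 nm ratio. Potency expressed as AC50 for activators or inhibitors.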
Potency means the concentration at half of the fitted maximal effect; tags describe the fitted curve by direction and shape.

Compound	activity change, negative = inhibition	Potency
Oc1ccc2ccccc2c1Cc1c(O)ccc2ccccc12	inactive: -3.49% [at 7.6 µM]	–
CCc1[nH]nc2c1C1(CCN(C(=O)OCc3ccccc3)CC1)C(C#N)=C(N)O2	inconclusive: 20.2%	–
NCCSc1nc(-c2ccccc2)c(-c2ccccc2)o1	inconclusive: -6.74% [at 7.6 µM]	–
O=C1c2ccccc2C(=O)N1CCCSc1nc2ccccc2o1	–	inconclusive: 0.398 µM [rising, partial curve]
CCn1c(SCC(=O)NCc2ccccc2)nnc1-c1ccccc1O	inactive	–
COc1nc2cc(C)ccc2cc1-c1noc(-c2cccnc2)n1	inconclusive: -1.2%	–
O=C(Nc1cc(C(F)(F)F)ccc1N1CCOCC1)c1cncc(Br)c1	inconclusive: 25.6%	–
O=C(Nc1ncccc1O)c1cccc(S(=O)(=O)N2CCc3ccccc32)c1	inconclusive: -20.8%	–
Cc1c(NC(=O)CSc2ccccc2C(=O)Nc2cccnc2)c(=O)n(-c2ccccc2)n1C	inconclusive: -24%	–
CCOc1cc(C(=O)Nc2ccc(N3CCN(S(C)(=O)=O)CC3)cc2)cc(OCC)c1OCC	inactive	–
COc1ccc(NC2=CC(=O)CC(C)(C)C2)cc1OC	inconclusive: 22.9%	–
Cn1c(=O)c(-c2cccs2)nc2cncnc21	–	active: 10 µM
COC(=O)[C@@]1(Cc2ccc(OC)cc2)[C@H]2c3cc(C(=O)N(C)C)n(Cc4ccc(S(C)(=O)=O)cc4)c3C[C@H]2CN1C(=O)c1ccccc1	inactive	–
CCn1c2ccccc2c2nc3cc(S(=O)(=O)N4CCOCC4)ccc3nc21	–	active: 2 µM
CCOP(=O)(c1ccc(N(C)C)cc1)C(O)c1c(Cl)cccc1Cl (stereo not drawn)	inactive	–
CCN(CC)CCNC(=O)CCCCn1c(=S)[nH]c2c([nH]c3ccc(OC)cc32)c1=O	inactive	–
CCOc1ccc(-c2nnn(CC(=O)Nc3cc(OC)cc(OC)c3)n2)cc1OCC	inactive	–
CN1CCc2nc(NC(=O)c3cccc(S(=O)(=O)N4CCc5ccccc54)c3)sc2C1	–	inconclusive: 7.94 µM [rising, partial curve]
Cc1ccnc(SCCn2c(Br)nc3c2c(=O)[nH]c(=O)n3C)n1	–	inconclusive: 10 µM [rising, single point]
Cc1noc(C)c1C(=O)N1CCC2(CCN(C(=O)Nc3ccccc3)CC2)CC1	inconclusive: -4.06%	–
Cc1[nH]n2c(=O)c(C#N)c(-c3ccccc3)nc2c1-c1ccccc1	inconclusive: -20.9%	–
N#Cc1cccc(-c2nc(Nc3ccncc3)c3ccccc3n2)c1	inconclusive: 28.5%	–
CCC(c1nnnn1CCc1ccccc1)N1CCN(c2ccc(OC)cc2)CC1 (stereo not drawn)	inactive	–
CCc1nn(CC(=O)NCCCN(CC)Cc2ccccc2)c(=O)c2cc3sccc3n12	inconclusive: -5.73%	–
CCC(Sc1nc2c(c(=O)[nH]1)CCC2)C(=O)Nc1cccc(OC)c1 (stereo not drawn)	inactive	–
COCCOC(=O)C(C#N)c1nc2ccccc2nc1N1CCCC1 (stereo not drawn)	–	active: 15.8 µM
COCCNc1nnc(SCC(=O)c2ccc3c(c2)OCO3)s1	–	inconclusive: 15.8 µM [rising, single point]

Compound	activity change, negative = inhibition	Potency
COCCCNC(=O)c1cc2c(=O)n3cccc(C)c3nc2n(C(C)C)c1=N	inconclusive: 22.3%	–
CN1CCN(c2nc(-c3ccc(N(C)C)cc3)nc3ccccc23)CC1	inconclusive: 11.3%	–
COc1ccc(Cl)cc1NC(=O)C1CCCN(c2cc(C)nc3ncnn23)C1 (stereo not drawn)	–	inconclusive: 10 µM [rising, partial curve]
CCCCn1c(=O)[nH]c(=O)c2c1nc(COc1ccc(C#N)cc1)n2CCC	–	inconclusive: 12.6 µM [rising, single point]
CCCNC(=O)Cc1cc(=O)[nH]c(=O)[nH]1	–	active: 2 µM
CCCCC(c1nnnn1CCOC)N1CCN(C(=O)c2ccco2)CC1 (stereo not drawn)	inconclusive: 2.28%	–
S=c1[nH]c2ccc(Cl)cc2[nH]1	inconclusive: -9.82%	–
C=CCn1c(SCC(=O)Nc2cc(C)ccc2C)nnc1-c1cnccn1	–	inconclusive: 12.6 µM [rising, partial curve]
CN(C)S(=O)(=O)c1ccc(S(=O)(=O)N(CC(=O)Nc2ccccc2)Cc2ccco2)cc1	inconclusive: 25.9%	–
CCN1CCN(/C=N/c2nc3c(s2)CCCC3)CC1	inconclusive: -6.8%	–
COC(=O)[C@@]1(Cc2ccccc2)[C@H]2c3cc(C(=O)N4CCCC4)n(Cc4c(CO)[nH]cc(C)c4=O)c3C[C@H]2CN1C(=O)c1ccccc1	inactive	–
CC(=O)c1cc2cc(O)ccc2o1	–	inconclusive: 10 µM [rising, partial curve]
Nc1nc(CN2CCN(c3ccc(F)cc3)CC2)nc(N2CCCc3ccccc32)n1	inconclusive: -12.1%	–
COc1ccc(-n2cnnc2SCc2cnc(-c3ccccc3)s2)cc1	inconclusive: 24.6%	–
NCCS	inactive	–
O=C(OCc1cc2ccccc2[nH]c1=O)c1cccnc1	inconclusive: 24.1%	–
CCOc1ccccc1NC(=O)N1CCCC1C(=O)Nc1ccc(-n2cnnn2)c(C)c1 (stereo not drawn)	inactive	–
CCCCn1c(CN2CCN(c3cccc(Cl)c3)CC2)nc2c1c(=O)[nH]c(=O)n2C	–	active: 10 µM
C=CCNc1sc(C(=O)c2cccs2)c(N)c1C#N	–	inconclusive: 10 µM [rising, partial curve]
COC(=O)c1cn(CC(=O)NCc2ccco2)c2ccccc12	inactive	–
CCOc1ccc(-n2c(SCc3nc(-c4cccs4)no3)nnc2-c2ccncc2)cc1	–	inconclusive: 15.8 µM [rising, single point]
COc1ccc(Br)cc1C(=O)Nc1ccc(O)cc1	inactive	–
O=C(c1ccc(COc2ccc(F)cc2)o1)n1cccn1	inconclusive: -5.7%	–
Cc1nn(Cc2ccccc2)c(C)c1NC(=O)c1cc2nc(-c3ccco3)cc(C(F)(F)F)n2n1	–	inconclusive: 10 µM [rising, partial curve]
COc1cccc(OC)c1C(=O)N1CCN(c2ccccn2)CC1	–	inconclusive: 2.51 µM [rising, partial curve]
CN(C)/C=N/c1c(C(=O)NCc2ccccc2)nnn1Cc1ccccc1	inconclusive: -13.3%	–

From PubChem BioAssay AID662 (National Center for Advancing Translational Sciences (NCATS), 2007)
